Laboratory results published in PubChem BioAssay AID588453 (National Center for Advancing Translational Sciences (NCATS), 2011).
Hit rate of the full screen: of about 390,000 compounds, about 4,000 (1%) were called active. Inconclusive means that the source gave no clear call. Such entries were picked first, then a sample of the others. Calls come from the whole dose curve; as a rule, active = well fitted inhibition curve with a large enough effect; inconclusive = small, poorly fitted or top-dose-only effect; inactive = no such curve, though single readings can be large or run the other way. Potencies of inconclusive entries are doubtful fits and often do not repeat.

These molecules were tested against Thioredoxin reductase 1, cytoplasmic (Rattus norvegicus) (UniProt O89049) (assay: qHTS Assay for Inhibitors of Mammalian Selenoprotein Thioredoxin Reductase 1 (TrxR1): qHTS). Settings: recombinant rTrxR1, NADPH fluorescence consumption, selenite substrate; series mostly up to 114 µM.
In short: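 Rat TrxR1 (90 nM in the dispensed reagent) was pre-reduced with 400 uM NADPH for 5 min at room temperature, then incubated with compound for 15 min. After 400 uM selenite was added, NADPH fluorescence (Ex 340/Em 450 nm) was followed for 8 min.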
Note: nearly all actives have a fitted effect of over 65% in size.
Potency is the fitted concentration of half-maximal effect; tags give direction and shape of the fitted curve.

Sequence of UniProt O89049 (O89049 whole entry, looked up): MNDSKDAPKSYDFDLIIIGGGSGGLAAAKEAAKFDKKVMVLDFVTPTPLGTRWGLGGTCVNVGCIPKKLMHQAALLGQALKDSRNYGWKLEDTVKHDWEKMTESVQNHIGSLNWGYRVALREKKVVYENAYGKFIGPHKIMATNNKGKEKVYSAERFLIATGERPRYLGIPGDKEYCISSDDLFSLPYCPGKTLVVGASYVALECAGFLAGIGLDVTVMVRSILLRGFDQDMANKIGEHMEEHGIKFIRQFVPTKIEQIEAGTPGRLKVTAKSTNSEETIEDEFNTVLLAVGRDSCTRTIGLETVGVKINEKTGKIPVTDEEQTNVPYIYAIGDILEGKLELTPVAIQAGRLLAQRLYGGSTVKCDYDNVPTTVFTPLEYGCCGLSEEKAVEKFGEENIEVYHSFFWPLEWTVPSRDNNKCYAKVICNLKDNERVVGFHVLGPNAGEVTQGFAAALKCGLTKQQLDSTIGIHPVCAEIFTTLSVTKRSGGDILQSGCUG

Structure (SMILES) | Potency
O=C(C(=O)N1CCN(c2cccc(Cl)c2)CC1)N1CCCCC1 | inactive
O=c1c2cc(N3CCOCC3)ccc2[nH]c(=S)n1CCN1CCCC1 | inactive
Cc1ccc(NC(=O)CSc2nnnn2C2CC2)cc1S(=O)(=O)N1CCOCC1 | inactive
CC(=O)[C@H]1CC[C@H]2[C@@H]3C[C@H](C)C4=CC(=O)CC[C@]4(C)[C@H]3[C@@H](O)C[C@]12C | inactive
CCOc1ccccc1NC(=O)CCS(=O)(=O)c1cccc2nonc12 | inconclusive: 56.2 µM [inhibitor, partial curve, poor fit]
CCC(=O)Nc1nonc1-c1nc2ccccc2n1Cc1cccc2ccccc12 | inactive
CC1CCCC(C)N1NC(=S)Nc1ccc(OC(F)F)cc1 (configuration not stated) | inconclusive: 10 µM [inhibitor, partial curve, poor fit]
Cc1oc(C)c2c(=O)cc(-c3ccc4c(c3)OCO4)cc(OC(=O)c3ccccc3Br)c12 | inconclusive: 17.8 µM [inhibitor, full curve]
COC(=O)C1=C(C)N(Cc2ccco2)C(=O)C1 | inconclusive: 20 µM [inhibitor, partial curve, poor fit]
O=C1CCCC2=C1C(c1ccc(Br)cc1)c1c([nH]c(=S)[nH]c1=O)N2 (configuration not stated) | inconclusive: 50.1 µM [inhibitor, partial curve]
O=C(NC1CCCC1)c1ccc(Cl)s1 | inactive
COCCNC(=O)CCCn1c(=O)c2cc(OC)c(OC)cc2n(CC(=O)Nc2ccc(F)cc2)c1=O | inconclusive: 89.1 µM [inhibitor, single point]
COc1ccc(Cc2nnc(N/N=C/c3ccc(Br)cc3)[nH]c2=O)cc1OC | inactive
COc1ccc(C2=NS(=O)(=O)N(C)C(C(=O)NCc3ccco3)=C2)cc1OC | inconclusive: 14.1 µM [inhibitor, partial curve, poor fit]
CC(NC(=O)/C(C#N)=C/c1ccc(C(=O)O)cc1)c1ccccc1 (configuration not stated) | inconclusive: 7.94 µM [inhibitor, partial curve, poor fit]
Cc1ccc2occ(CN3CCN(c4ccccc4)CC3)c(=O)c2c1 | inconclusive: 50.1 µM [inhibitor, partial curve, poor fit]
O=C(/C=C\c1ccc(-c2cccc([N+](=O)[O-])c2)o1)N1CCOCC1 | inconclusive: 79.4 µM [inhibitor, single point]
Cc1ccc(C2=NS(=O)(=O)N(C)C(C(=O)NCc3ccco3)=C2)cc1 | inconclusive: 31.6 µM [inhibitor, partial curve, poor fit]
Cn1cnc([N+](=O)[O-])c1Sc1ncn[nH]1 | inconclusive: 8.91 µM [inhibitor, partial curve, poor fit]
CC(C)(C)c1ccc2c(c1)OC(C(=O)N/N=C/c1ccc([N+](=O)[O-])o1)CO2 (configuration not stated) | inconclusive: 20 µM [inhibitor, partial curve, poor fit]
Cc1nc(NCCc2ccc(O)cc2)c2nnn(Cc3ccccc3)c2n1 | inactive

Structure (SMILES) | Potency
Cc1ccc(Cn2ncc3c(N4CCN(c5ccc(C)cc5)CC4)ncnc32)cc1 | inactive
CC(C)c1ccc(S(=O)(=O)/N=C2/C=C(Sc3ncn[nH]3)C(=O)c3ccccc32)cc1 | inconclusive: 63.1 µM [inhibitor, single point]
O=C(Cn1nnc(-c2ccc(F)cc2)n1)OCC(=O)c1ccccc1 | inconclusive: 56.2 µM [inhibitor, partial curve, poor fit]
COCCCN(C(=S)NC(=O)c1ccc(Br)cc1)c1c(N)n(Cc2ccccc2)c(=O)[nH]c1=O | inconclusive: 22.4 µM [inhibitor, partial curve, poor fit]
CCC(c1nnc(SCC(=O)Nc2nnc(-c3ccccc3)o2)o1)N(C)C (configuration not stated) | inconclusive: 89.1 µM [inhibitor, single point]
Cc1c(CC(=O)N2CCC(C(=O)O)CC2)c(=O)oc2cc3c(cc12)CCC1(CCCCC1)O3 | inconclusive: 3.16 µM [inhibitor, full curve, poor fit]
COc1ccccc1CNC(=O)C1CCCN(c2nnc(-n3c(C)ccc3C)s2)C1 (configuration not stated) | inconclusive: 14.1 µM [inhibitor, partial curve, poor fit]
COc1ccc(NC(=O)c2cc(-c3ccco3)nc3ccccc23)cc1S(=O)(=O)N1CCOCC1 | inconclusive: 10 µM [inhibitor, partial curve, poor fit]
CC(=O)N1CCc2cc(N=NC3=C(O)CCCC3=O)ccc21 | inconclusive: 89.1 µM [inhibitor, partial curve, poor fit]
COCCCNC(=O)/C(C#N)=C/c1ccc(OCC(=O)O)c(OC)c1 | inconclusive: 39.8 µM [inhibitor, partial curve, poor fit]
C=CCNC(=S)NNC(=O)COc1c(Cl)cc(Cl)cc1Cl | inconclusive: 14.1 µM [inhibitor, partial curve]
CCOc1ccc(NC(=O)NCCc2c(C)nn(C)c2C)cc1 | inactive
O=C(C1=C[C@@H](C2CCCCC2)C[C@@H](OCc2ccc(CO)cc2)O1)N1CCN(Cc2ccc3c(c2)OCO3)CC1 | inactive
Cc1sc2ncnc(SCC(=O)N(C(C)C)C(C)C)c2c1C | inactive
Cc1ccc(OCc2nn3c(-c4ccco4)nnc3s2)cc1 | inconclusive: 14.1 µM [inhibitor, full curve]
COc1ccc(Br)cc1C(C[N+](=O)[O-])c1c(N)n(C)c(=O)n(C)c1=O (configuration not stated) | inconclusive: 56.2 µM [inhibitor, partial curve, poor fit]
COc1ccc2c(-c3ccccc3)cc(=O)[nH]c2c1 | inactive
O=c1c2oc3ccccc3c2n(Cc2ccccc2Cl)c(=O)n1Cc1ccco1 | inconclusive: 56.2 µM [inhibitor, single point]
COc1ccc(NC(=O)c2ccccc2)c([N+](=O)[O-])c1 | inactive
O=S1(=O)CCC(NS(=O)(=O)/C=C/c2ccccc2)C1 (configuration not stated) | inactive
O=C(COC(=O)CCc1c[nH]c(=O)[nH]1)Nc1ccccc1Cl | inconclusive: 22.4 µM [inhibitor, partial curve]
